From the supplement of paper PMC5998384 come the findings set out here.

Series [1] deals with HeLa Kyoto. Briefly: thermal stability score vs G1/S (z-score of summed log2 fold changes over temperatures); higher = more thermally stable than in G1/S.
The test system of series [2] is HeLa Kyoto. Description: solubility change mitosis vs G1/S (difference of NP-40 vs SDS log2 ratios) (log2 ratio difference); higher = more soluble in mitosis.
Series [3] concerns HeLa Kyoto. Description: melting temperature (median over replicates), in situ; higher = more thermally stable.
The subject of series [4] is HeLa Kyoto. Briefly: solubility in G1/S (NP-40 vs SDS abundance) (log2 ratio); higher = more soluble. Conditions: cell cycle stage: G1/S.
Where [5] appears, read: cell cycle stage: early G1 (4.5 h after nocodazole release).
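Throughout, for melting temperature (median over replicates), in situ: HeLa Kyoto cells synchronized by double thymidine or nocodazole block, proteins quantified by TMT10plex mass spectrometry, three independent biological replicates.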
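Throughout, for solubility change mitosis vs G1/S (difference of NP-40 vs SDS log2 ratios): synchronized HeLa Kyoto cells (double thymidine block for G1/S, nocodazole release for mitosis), protein amounts in NP-40 versus SDS lysates quantified by mass spectrometry, three biological replicates.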
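Throughout, for solubility in G1/S (NP-40 vs SDS abundance): HeLa Kyoto cells arrested at G1/S by double thymidine block, proteins quantified by TMT10plex mass spectrometry in mild NP-40 versus SDS extracts, three biological replicates.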
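Throughout, for thermal stability score vs G1/S (z-score of summed log2 fold changes over temperatures): synchronized HeLa Kyoto cells, proteins quantified by TMT10plex mass spectrometry, three biological replicates, mitosis taken 0.5 h after nocodazole release, G1/S directly after double thymidine block.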

With “MAADKGPAAGPRSRAAMAQWRKKKGLRKRRGAASQARGSDSEDGEFEIQAEDDARARKLGPGRPLPTFPTSECTSDVEPDTREMVRAQNKKKKKSGGFQSMGLSYPVFKGIMKKGYKVPTPIQRKTIPVILDGKDVVAMARTGSGKTACFLLPMFERLKTHSAQTGARALILSPTRELALQTLKFTKELGKFTGLKTALILGGDRMEDQFAALHENPDIIIATPGRLVHVAVEMSLKLQSVEYVVFDEADRLFEMGFAEQLQEIIARLPGGHQTVLFSATLPKLLVEFARAGLTEPVLIRLDVDTKLNEQLKTSFFLVREDTKAAVLLHLLHNVVRPQDQTVVFVATKHHAEYLTELLTTQRVSCAHIYSALDPTARKINLAKFTLGKCSTLIVTDLAARGLDIPLLDNVINYSFPAKGKLFLHRVGRVARAGRSGTAYSLVAPDEIPYLLDLHLFLGRSLTLARPLKEPSGVAGVDGMLGRVPQSVVDEEDSGLQSTLEASLELRGLARVADNAQQQYVRSRPAPSPESIKRAKEMDLVGLGLHPLFSSRFEEEELQRLRLVDSIKNYRSRATIFEINASSRDLCSQVMRAKRQKDRKAIARFQQGQQGRQEQQEGPVGPAPSRPALQEKQPEKEEEEEAGESVEDIFSEVVGRKRQRSGPNRGAKRRREEARQRDQEFYIPYRPKDFDSERGLSISGEGGAFEQQAAGAVLDLMGDEAQNLTRGRQQLKWDRKKKRFVGQSGQEDKKKIKTESGRYISSSYKRDLYQKWKQKQKIDDRDSDEEGASDRRGPERRGGKRDRGQGASRPHAPGTPAGRVRPELKTKQQILKQRRRAQKLHFLQRGGLKQLSARNRRRVQELQQGAFGRGARSKKGKMRKRM [DDX54]”, the thermal stability score in the series on HeLa Kyoto [1] (setting [5]) worked out at 0.641; in the series with HeLa Kyoto [1] (cell cycle stage: mitosis) it was 3.16. Moreover, in the series with HeLa Kyoto [2], the “solubility change mitosis (log2)” value came to 1.12. The melting temperature with HeLa Kyoto [3] (cell cycle stage: G1/S) stood at 50.7 °C; in the series with HeLa Kyoto [3] (cell cycle stage: mitosis), 51.6 °C. In addition, the “solubility in G1/S (log2)” value with HeLa Kyoto [4] is -1.96.

As to “MPQLYIYIRLLGAYLFIISRVQGQNLDSMLHGTGMKSDSDQKKSENGVTLAPEDTLPFLKCYCSGHCPDDAINNTCITNGHCFAIIEEDDQGETTLASGCMKYEGSDFQCKDSPKAQLRRTIECCRTNLCNQYLQPTLPPVVIGPFFDGSIRWLVLLISMAVCIIAMIIFSSCFCYKHYCKSISSRRRYNRDLEQDEAFIPVGESLKDLIDQSQSSGSGSGLPLLVQRTIAKQIQMVRQVGKGRYGEVWMGKWRGEKVAVKVFFTTEEASWFRETEIYQTVLMRHENILGFIAADIKGTGSWTQLYLITDYHENGSLYDFLKCATLDTRALLKLAYSAACGLCHLHTEIYGTQGKPAIAHRDLKSKNILIKKNGSCCIADLGLAVKFNSDTNEVDVPLNTRVGTKRYMAPEVLDESLNKNHFQPYIMADIYSFGLIIWEMARRCITGGIVEEYQLPYYNMVPSDPSYEDMREVVCVKRLRPIVSNRWNSDECLRAVLKLMSECWAHNPASRLTALRIKKTLAKMVESQDVKI [BMPR1A]”, the “solubility change mitosis (log2)” value with HeLa Kyoto [2] was determined as 0.0431. Besides, in the series with HeLa Kyoto [4], the “solubility in G1/S (log2)” value was -0.0875.

“MATTVPDGCRNGLKSKYYRLCDKAEAWGIVLETVATAGVVTSVAFMLTLPILVCKVQDSNRRKMLPTQFLFLLGVLGIFGLTFAFIIGLDGSTGPTRFFLFGILFSICFSCLLAHAVSLTKLVRGRKPLSLLVILGLAVGFSLVQDVIAIEYIVLTMNRTNVNVFSELSAPRRNEDFVLLLTYVLFLMALTFLMSSFTFCGSFTGWKRHGAHIYLTMLLSIAIWVAWITLLMLPDFDRRWDDTILSSALAANGWVFLLAYVSPEFWLLTKQRNPMDYPVEDAFCKPQLVKKSYGVENRAYSQEEITQGFEETGDTLYAPYSTHFQLQNQPPQKEFSIPRAHAWPSPYKDYEVKKEGS [GPRC5A]”: the thermal stability score in the series with HeLa Kyoto [1] (setting [5]) is -2.25; in the series with HeLa Kyoto [1] (cell cycle stage: mitosis) it was -1.15. The “solubility change mitosis (log2)” value in the series on HeLa Kyoto [2] was -0.365. Also, the melting temperature turned out to be 63.4 °C in the series with HeLa Kyoto [3] (cell cycle stage: G1/S) and 60.3 °C in the series with HeLa Kyoto [3] (cell cycle stage: mitosis). In the series on HeLa Kyoto [4], the “solubility in G1/S (log2)” value was -0.337.

Take “MVFSVRQCGHVGRTEEVLLTFKIFLVIICLHVVLVTSLEEDTDNSSLSPPPAKLSVVSFAPSSNGTPEVETTSLNDVTLSLLPSNETEKTKITIVKTFNASGVKPQRNICNLSSICNDSAFFRGEIMFQYDKESTVPQNQHITNGTLTGVLSLSELKRSELNKTLQTLSETYFIMCATAEAQSTLNCTFTIKLNNTMNACAVIAALERVKIRPMEHCCCSVRIPCPSSPEELEKLQCDLQDPIVCLADHPRGPPFSSSQSIPVVPRATVLSQVPKATSFAEPPDYSPVTHNVPSPIGEIQPLSPQPSAPIASSPAIDMPPQSETISSPMPQTHVSGTPPPVKASFSSPTVSAPANVNTTSAPPVQTDIVNTSSISDLENQVLQMEKALSLGSLEPNLAGEMINQVSRLLHSPPDMLAPLAQRLLKVVDDIGLQLNFSNTTISLTSPSLALAVIRVNASSFNTTTFVAQDPANLQVSLETQAPENSIGTITLPSSLMNNLPAHDMELASRVQFNFFETPALFQDPSLENLSLISYVISSSVANLTVRNLTRNVTVTLKHINPSQDELTVRCVFWDLGRNGGRGGWSDNGCSVKDRRLNETICTCSHLTSFGVLLDLSRTSVLPAQMMALTFITYIGCGLSSIFLSVTLVTYIAFEKIRRDYPSKILIQLCAALLLLNLVFLLDSWIALYKMQGLCISVAVFLHYFLLVSFTWMGLEAFHMYLALVKVFNTYIRKYILKFCIVGWGVPAVVVTIILTISPDNYGLGSYGKFPNGSPDDFCWINNNAVFYITVVGYFCVIFLLNVSMFIVVLVQLCRIKKKKQLGAQRKTSIQDLRSIAGLTFLLGITWGFAFFAWGPVNVTFMYLFAIFNTLQGFFIFIFYCVAKENVRKQWRRYLCCGKLRLAENSDWSKTATNGLKKQTVNQGVSSSSNSLQSSSNSTNSTTLLVNNDCSVHASGNGNASTERNGVSFSVQNGDVCLHDFTGKQHMFNEKEDSCNGKGRMALRRTSKRGSLHFIEQM [ADGRG2]”: the thermal stability score is -0.345 in the series with HeLa Kyoto [1] (setting [5]) and -0.905 with HeLa Kyoto [1] (cell cycle stage: mitosis). Also, the melting temperature was 56.5 °C with HeLa Kyoto [3] (cell cycle stage: G1/S) and 54.2 °C in the series with HeLa Kyoto [3] (cell cycle stage: mitosis).

On to “MGTTAPGPIHLLELCDQKLMEFLCNMDNKDLVWLEEIQEEAERMFTREFSKEPELMPKTPSQKNRRKKRRISYVQDENRDPIRRRLSRRKSRSSQLSSRRLRSKDSVEKLATVVGENGSVLRRVTRAAAAAAAATMALAAPSSPTPESPTMLTKKPEDNHTQCQLVPVVEIGISERQNAEQHVTQLMSTEPLPRTLSPTPASATAPTSQGIPTSDEESTPKKSKARILESITVSSLMATPQDPKGQGVGTGRSASKLRIAQVSPGPRDSPAFPDSPWRERVLAPILPDNFSTPTGSRTDSQSVRHSPIAPSSPSPQVLAQKYSLVAKQESVVRRASRRLAKKTAEEPAASGRIICHSYLERLLNVEVPQKVGSEQKEPPEEAEPVAAAEPEVPENNGNNSWPHNDTEIANSTPNPKPAASSPETPSAGQQEAKTDQADGPREPPQSARRKRSYKQAVSELDEEQHLEDEELQPPRSKTPSSPCPASKVVRPLRTFLHTVQRNQMLMTPTSAPRSVMKSFIKRNTPLRMDPKCSFVEKERQRLENLRRKEEAEQLRRQKVEEDKRRRLEEVKLKREERLRKVLQARERVEQMKEEKKKQIEQKFAQIDEKTEKAKEERLAEEKAKKKAAAKKMEEVEARRKQEEEARRLRWLQQEEEERRHQELLQKKKEEEQERLRKAAEAKRLAEQREQERREQERREQERREQERREQERREQERQLAEQERRREQERLQAERELQEREKALRLQKEQLQRELEEKKKKEEQQRLAERQLQEEQEKKAKEAAGASKALNVTVDVQSPACTSYQMTPQGHRAPPKINPDNYGMDLNSDDSTDDEAHPRKPIPTWARGTPLSQAIIHQYYHPPNLLELFGTILPLDLEDIFKKSKPRYHKRTSSAVWNSPPLQGARVPSSLAYSLKKH [INCENP]”, for which, in the series with HeLa Kyoto [2], the “solubility change mitosis (log2)” value was 0.163. Further, the “solubility in G1/S (log2)” value with HeLa Kyoto [4] is -1.47.

Turning to “MQEIIASVDHIKFDLEIAVEQQLGAQPLPFPGMDKSGAAVCEFFLKAACGKGGMCPFRHISGEKTVVCKHWLRGLCKKGDQCEFLHEYDMTKMPECYFYSKFGECSNKECPFLHIDPESKIKDCPWYDRGFCKHGPLCRHRHTRRVICVNYLVGFCPEGPSCKFMHPRFELPMGTTEQPPLPQQTQPPAKQSNNPPLQRSSSLIQLTSQNSSPNQQRTPQVIGVMQSQNSSAGNRGPRPLEQVTCYKCGEKGHYANRCTKGHLAFLSGQ [CPSF4]”, the figures for the thermal stability score with HeLa Kyoto [1] (setting [5]) and in the series with HeLa Kyoto [1] (cell cycle stage: mitosis) were 0.742 and 1.09, respectively. For the same sequence, in the series on HeLa Kyoto [2], the “solubility change mitosis (log2)” value was found to be 0.32. For the same sequence, the melting temperature in the series with HeLa Kyoto [3] (cell cycle stage: G1/S) is 48.4 °C; with HeLa Kyoto [3] (cell cycle stage: mitosis) it was 50 °C. Also, the “solubility in G1/S (log2)” value in the series on HeLa Kyoto [4] is -0.344.

For the sequence “MAIHKALVMCLGLPLFLFPGAWAQGHVPPGCSQGLNPLYYNLCDRSGAWGIVLEAVAGAGIVTTFVLTIILVASLPFVQDTKKRSLLGTQVFFLLGTLGLFCLVFACVVKPDFSTCASRRFLFGVLFAICFSCLAAHVFALNFLARKNHGPRGWVIFTVALLLTLVEVIINTEWLIITLVRGSGEGGPQGNSSAGWAVASPCAIANMDFVMALIYVMLLLLGAFLGAWPALCGRYKRWRKHGVFVLLTTATSVAIWVVWIVMYTYGNKQHNSPTWDDPTLAIALAANAWAFVLFYVIPEVSQVTKSSPEQSYQGDMYPTRGVGYETILKEQKGQSMFVENKAFSMDEPVAAKRPVSPYSGYNGQLLTSVYQPTEMALMHKVPSEGAYDIILPRATANSQVMGSANSTLRAEDMYSAQSHQAATPPKDGKNSQVFRNPYVWD [GPRC5C]”, the thermal stability score is -4.36 with HeLa Kyoto [1] (setting [5]) and -2.81 in the series on HeLa Kyoto [1] (cell cycle stage: mitosis). Further, the “solubility change mitosis (log2)” value in the series with HeLa Kyoto [2] was -0.0918. Also, the results for the melting temperature with HeLa Kyoto [3] (cell cycle stage: G1/S) and in the series on HeLa Kyoto [3] (cell cycle stage: mitosis) were 54.6 °C and 57.8 °C, respectively. For the same sequence, the “solubility in G1/S (log2)” value in the series with HeLa Kyoto [4] is -0.132.

As to “MAWRHLKKRAQDAVIILGGGGLLFASYLMATGDERFYAEHLMPTLQGLLDPESAHRLAVRFTSLGLLPRARFQDSDMLEVRVLGHKFRNPVGIAAGFDKHGEAVDGLYKMGFGFVEIGSVTPKPQEGNPRPRVFRLPEDQAVINRYGFNSHGLSVVEHRLRARQQKQAKLTEDGLPLGVNLGKNKTSVDAAEDYAEGVRVLGPLADYLVVNVSSPNTAGLRSLQGKAELRRLLTKVLQERDGLRRVHRPAVLVKIAPDLTSQDKEDIASVVKELGIDGLIVTNTTVSRPAGLQGALRSETGGLSGKPLRDLSTQTIREMYALTQGRVPIIGVGGVSSGQDALEKIRAGASLVQLYTALTFWGPPVVGKVKRELEALLKEQGFGGVTDAIGADHRR [DHODH]”, the results for the thermal stability score in the series on HeLa Kyoto [1] (setting [5]) and in the series on HeLa Kyoto [1] (cell cycle stage: mitosis) were -0.868 and -1.34, respectively. The “solubility change mitosis (log2)” value with HeLa Kyoto [2] is -0.147. For the same sequence, the melting temperature in the series with HeLa Kyoto [3] (cell cycle stage: G1/S) worked out at 56.2 °C; in the series on HeLa Kyoto [3] (cell cycle stage: mitosis) it was 55.7 °C. For the same sequence, the “solubility in G1/S (log2)” value with HeLa Kyoto [4] was determined as 0.149.
